# Laboratory results published in article PMC6919601, “Identification of Plasmodium dipeptidyl aminopeptidase allosteric inhibitors by high throughput screening” (PLoS ONE, 2019).
# Among all 110,000 compounds or so, about 230 (0.21%) showed an effect of 50% or more. The list shows a part of the results.
# Target: DPAP1 (Plasmodium falciparum, UniProt Q8IIJ9)
# Assay: primary screen, percent inhibition; read by cleavage of a fluorogenic dipeptide substrate; higher = more effect of the substance
# Parameters: species or system P. falciparum D10 trophozoite lysates; single well
# 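Note: 30 min substrate incubation versus DMSO and 10 µM JCP410 controls.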
# Chain of DPAP1 (Q8IIJ9 whole entry, looked up): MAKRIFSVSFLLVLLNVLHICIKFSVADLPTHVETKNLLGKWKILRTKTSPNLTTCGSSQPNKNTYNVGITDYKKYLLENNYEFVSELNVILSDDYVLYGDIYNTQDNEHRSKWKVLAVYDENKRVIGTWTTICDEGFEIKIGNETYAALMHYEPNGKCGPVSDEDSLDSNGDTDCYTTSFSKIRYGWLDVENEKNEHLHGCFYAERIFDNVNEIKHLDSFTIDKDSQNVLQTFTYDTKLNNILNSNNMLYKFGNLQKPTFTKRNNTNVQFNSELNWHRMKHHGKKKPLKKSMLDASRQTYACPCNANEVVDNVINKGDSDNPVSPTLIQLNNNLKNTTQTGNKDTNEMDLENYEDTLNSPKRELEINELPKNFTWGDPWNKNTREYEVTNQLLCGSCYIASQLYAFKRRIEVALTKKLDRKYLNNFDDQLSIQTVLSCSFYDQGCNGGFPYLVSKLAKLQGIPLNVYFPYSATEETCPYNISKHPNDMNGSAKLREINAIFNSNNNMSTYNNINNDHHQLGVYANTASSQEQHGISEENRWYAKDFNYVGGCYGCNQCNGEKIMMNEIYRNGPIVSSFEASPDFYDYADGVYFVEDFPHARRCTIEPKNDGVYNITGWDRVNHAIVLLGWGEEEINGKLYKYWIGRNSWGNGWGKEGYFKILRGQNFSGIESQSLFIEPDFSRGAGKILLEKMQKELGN
row,Compound,% Inhibition @ 10 uM
1,CN1CCCC1CCNC1CCc2ccccc2C1 (centres unmarked),-6.62%
2,COc1ccccc1/C=C/C=C1N=C(/C=C/c2ccc(C)cc2)OC\1=O,3.74%
3,O=C(O)CCNC1=NC(=O)CS1,-1.82%
4,CN(C(=O)C1CC(c2ccc(F)cc2)=NO1)C1CCCCC1 (centres unmarked),-0.431%
5,CCCC(=O)Nc1nc2nc(C)cc(C)n2n1,2.05%
6,CC(C)NC(=O)c1ccc(Cn2c(SCc3ccc(F)cc3)nc3ccncc32)cc1,1.21%
7,CCCCOC(=O)c1ccc2c(c1)C(=O)N(c1ccc([N+](=O)[O-])cc1)C2=O,-2%
8,Cc1ccc2ccc(S(=O)(=O)N3CCCCC3)cc2c1,0.467%
9,COCCNC(=O)CCC(=O)N1Cc2ccccc2Oc2ncccc21,3.87%
10,CCN1CCN(C2CCC(C)C2)CC1 (centres unmarked),-4.04%
11,O=C1C2C3C=CC(CO)(O3)C2C(=O)N1c1cccc(Br)c1 (centres unmarked),3.74%
12,CC1(C)C2CCC1(C(=O)O)c1nc3ccccc3nc12 (centres unmarked),-2.91%
13,CC(=O)Nc1ccc(OCC(O)CNC2CCN(C)CC2)cc1 (centres unmarked),-7.23%
14,N#CC1=C(N)Oc2[nH]nc(-c3ccccc3)c2C1c1cccc(Cl)c1 (centres unmarked),-2.46%
15,CCn1c2c(c3cc(Cl)ccc31)CCC/C2=N\O,-0.803%
16,Cc1ccccc1C(=O)Nc1ccc(Cl)cc1Cl,-3.04%
17,COC(=O)c1cn(CC(=O)N2CCC(C)CC2)c2ccccc12,-3.64%
18,CCCCCCCCOc1ccc(/C=C(\C#N)c2nc(-c3cc4ccccc4oc3=O)cs2)cc1,-0.771%
19,CNC(=O)/C(C#N)=C/c1c(Oc2ccccc2)nc2c(C)cccn2c1=O,3.63%
20,CCOc1ccccc1C(=O)Nc1ccccc1F,5.31%
21,Cc1ccc2[nH]c(C)c(CCNc3ncnc4c3oc3ccccc34)c2c1,2.57%
22,O=C(O)C1C2C=CC(O2)C1C(=O)Nc1nc2ccccc2s1 (centres unmarked),-3.97%
23,COc1ccc(-c2cc(C(=O)Nc3cc(S(N)(=O)=O)ccc3C)c3ccccc3n2)cc1OC,5.31%
24,CCc1ccccc1NC(=O)c1ccc(NC(C)=O)cc1,-0.127%
25,COc1ccc(C2C(C#N)=C(SCC(=O)Nc3ccccc3)N=C3CC(C)(C)CC(O)=C32)cc1 (centres unmarked),-1.08%
26,COc1ccccc1CCNCc1ccc(OC)c(C)c1OC,-0.467%
27,NC(=O)c1cc(C(N)=O)c(C(N)=O)cc1C(N)=O,19%
28,Cc1cc(C)c2c(n1)nn1c(C)c(CCC(=O)NCC(C)c3ccccc3)c(C)nc21 (centres unmarked),-4.74%
29,CC1CCN(S(=O)(=O)c2cccc3c(S(=O)(=O)N4CCC(C)CC4)cccc23)CC1,-2.35%
